About 230 (0.21%) of roughly 110,000 compounds showed an effect of 50% or more. The list shows a part of the results.
Biological target: DPAP1 (Plasmodium falciparum, UniProt Q8IIJ9)
Experiment: primary screen, percent inhibition; read by cleavage of a fluorogenic dipeptide substrate; higher = more effect of the substance
Parameters: species or system P. falciparum D10 trophozoite lysates; single well
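Also: 30 min substrate incubation versus DMSO and 10 µM JCP410 controls.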

Chain of DPAP1 (Q8IIJ9 whole entry, looked up): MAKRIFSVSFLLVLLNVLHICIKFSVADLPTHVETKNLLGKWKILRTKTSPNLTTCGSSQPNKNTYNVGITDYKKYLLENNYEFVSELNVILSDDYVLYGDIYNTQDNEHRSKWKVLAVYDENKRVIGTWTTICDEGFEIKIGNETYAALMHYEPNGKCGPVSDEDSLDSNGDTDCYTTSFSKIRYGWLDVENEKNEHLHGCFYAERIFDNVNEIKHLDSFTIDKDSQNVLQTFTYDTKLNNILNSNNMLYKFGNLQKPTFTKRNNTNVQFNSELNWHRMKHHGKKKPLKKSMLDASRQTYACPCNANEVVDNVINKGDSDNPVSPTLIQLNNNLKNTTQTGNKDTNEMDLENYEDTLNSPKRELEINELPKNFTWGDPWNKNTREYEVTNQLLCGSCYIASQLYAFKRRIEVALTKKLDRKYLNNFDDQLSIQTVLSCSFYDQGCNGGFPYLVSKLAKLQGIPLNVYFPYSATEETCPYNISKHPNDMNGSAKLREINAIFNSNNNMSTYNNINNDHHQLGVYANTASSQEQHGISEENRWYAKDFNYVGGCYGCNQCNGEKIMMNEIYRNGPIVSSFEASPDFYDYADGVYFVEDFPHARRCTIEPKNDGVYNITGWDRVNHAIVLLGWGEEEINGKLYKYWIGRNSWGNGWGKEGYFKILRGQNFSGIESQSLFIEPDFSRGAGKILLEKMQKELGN

Compared with `Cc1ccc(OCC(=O)Nc2ccc(N3CCN(C)CC3)cc2)cc1C`, `COc1ccc(OCC(=O)Nc2c(C(=O)N3CCN(C)CC3)oc3ccccc23)cc1` is lower in “% Inhibition @ 10 uM” value: -2.82% for the first, -4.22% for the second.

First: COc1ccc(OC)c2sc(N(CCCN(C)C)C(=O)c3cccc(Cl)c3)nc12
Second: COc1ccc(NC(=O)CN(c2ccc(OC)c(Cl)c2)S(C)(=O)=O)c(OC)c1
The “% Inhibition @ 10 uM” value of the first is lower: 0.49% for the first, 1.89% for the second.

Going from `COc1cc(C(=O)OCCCn2c(=O)c3c(ncn3CC(O)CO)n(C)c2=O)cc(OC)c1OC` (stereo not shown) to `CN1CCN(C(=O)Cn2cnc3c2c(=O)n(C)c(=O)n3C)CC1`, the “% Inhibition @ 10 uM” value falls from -1.22% to -5.83%.

Compared with `CCN(CC)C(=O)CN(c1cc2c(cc1OC)oc1ccccc12)S(=O)(=O)c1ccccc1`, `COc1ccccc1N1CCN(C(=O)CN(c2ccccc2Br)S(C)(=O)=O)CC1` is higher in “% Inhibition @ 10 uM” value: -5.23% for the first, -2.6% for the second.

Going from `Cc1ccc(-c2c(C#N)c(N)nc3c2CCCC3)s1` to `CCCC(=O)Nc1cc(N(C)C)nc2c1CCC2`, the “% Inhibition @ 10 uM” value falls from 2.09% to -3.63%.

First: O=C(Cc1ccccc1)Nc1ccc2c(c1)S(=O)(=O)c1cc(NC(=O)Cc3ccccc3)ccc1-2
Second: O=C(NC1CCS(=O)(=O)C1)/C(=C\c1cccc(Oc2ccccc2)c1)NC(=O)c1ccccc1 (stereo not shown)
The “% Inhibition @ 10 uM” value of the first is lower: -10.9% for the first, -5.28% for the second.

Compared with `COc1cc2ccccc2cc1C(=O)Nc1nc2c(s1)CCc1ccccc1-2`, `COc1ccc(/C=c2/sc3nc(=O)c(Cc4ccccc4)nn3c2=O)cc1OC` is higher in “% Inhibition @ 10 uM” value: 0.997% for the first, 10.8% for the second.

Compared with `COc1ccc(N2C(=O)NC(NC(=O)c3cccnc3)(C(F)(F)F)C2=O)cc1` (stereo not shown), `COc1ccc(-c2cc(C(F)(F)F)nc(SCC(=O)Nc3cccnc3)n2)cc1` is lower in “% Inhibition @ 10 uM” value: -0.425% for the first, -2.09% for the second.

Going from `CCOc1ccc(NC(=O)CSC2=C(C#N)C(c3cccs3)C3=C(O)CC(C)(C)CC3=N2)cc1` (stereo not shown) to `CC1=C(C#N)C(c2cccnc2)C2=C(O)CC(C)(C)CC2=N1` (stereo not shown), the “% Inhibition @ 10 uM” value falls from 0.751% to -4.03%.

Compared with `O=C(NC1CCN(c2ncccn2)CC1)c1ccco1`, `Cc1cccnc1NC(=O)C1CCCN(c2ncnc3onc(C)c23)C1` (stereo not shown) is lower in “% Inhibition @ 10 uM” value: 0.596% for the first, -3% for the second.

Going from `CC(C)C[C@H](NC(=O)c1ccc(-c2ccsc2C(N)=O)cc1)C(=O)NCC#N` to `C/C=C/C[C@H](NC(=O)c1ccccc1)C(=O)NCC#N`, the “% Inhibition @ 10 uM” value falls from 1.35% to -1.83%.

Going from `Fc1ccc(-n2ncc3c(NCCc4ccccc4)ncnc32)cc1` to `O=C(CCCc1ccccc1)Nc1ccc(Cl)cc1`, the “% Inhibition @ 10 uM” value falls from 1.91% to -0.712%.

Compared with `COc1cccc(S(=O)(=O)NCc2ccc(C(=O)N3CCN(C)CC3)cc2)c1`, `Cc1c(C(=O)N2CCC(Cc3ccccc3)CC2)oc2ccc(S(=O)(=O)N3CCOCC3)cc12` is lower in “% Inhibition @ 10 uM” value: -1.61% for the first, -4.06% for the second.

First: O=C(COc1ccc(Cl)cc1)Nc1ccc(S(=O)(=O)N2CCCCC2)cc1
Second: CCOC(=O)C1CCN(S(=O)(=O)c2cc(Cl)ccc2Cl)CC1
The “% Inhibition @ 10 uM” value of the first is higher: 0.0974% for the first, -0.292% for the second.

First: Cc1cc(C)c(C#N)c(SCC(=O)Nc2cccc3ccccc23)n1
Second: CC(C)OCCCn1c(=O)c2ccccc2n2c(-c3cccc(F)c3)nnc12
The “% Inhibition @ 10 uM” value of the first is lower: -0.736% for the first, 1.68% for the second.

First: CC1CCCCN1Cc1c(O)ccc2ccccc12 (stereo not shown)
Second: CC1CCCCC1/N=c1/c(-c2ccccc2)c(O)c1=O (stereo not shown)
The “% Inhibition @ 10 uM” value of the first is higher: -2.24% for the first, -4.37% for the second.

Going from `CCN(CC)CC(=O)N1c2ccccc2Sc2ccc(C(F)(F)F)cc21` to `CCN1C(=O)C(CC(=O)Nc2cccc(C(F)(F)F)c2)S/C1=N\c1cccc(OC)c1` (stereo not shown), the “% Inhibition @ 10 uM” value rises from -3.6% to 4.56%.

Going from `CC(=O)N1Cc2ccccc2C(C)CC12CCCC2` (stereo not shown) to `CSc1ccccc1N1CCN(C(=O)N[C@@H](CC(C)C)C(=O)NCC#N)CC1`, the “% Inhibition @ 10 uM” value falls from -1.37% to -5.2%.

Compared with `CCOC(=O)N1CCC(NC(=O)C(C)n2c3ccccc3c3cnn(C)c(=O)c32)CC1` (stereo not shown), `CCOC(=O)N1CCN(C(=O)C2CCN(c3nc4ccc(OC)cc4s3)CC2)CC1` is lower in “% Inhibition @ 10 uM” value: -0.281% for the first, -5.51% for the second.

Compared with `CCN(CC)CCCCOc1cccc2ccccc12`, `COc1ccccc1C(NC(=O)C(C)C)c1ccc2cccnc2c1O` (stereo not shown) is lower in “% Inhibition @ 10 uM” value: 3% for the first, -1.48% for the second.

First: NS(=O)(=O)c1ccc(CCNS(=O)(=O)c2cccc3nsnc23)cc1
Second: NS(=O)(=O)c1ccc(CNC(=O)C2CCCCC2)cc1
The “% Inhibition @ 10 uM” value of the first is higher: 5.11% for the first, 3.72% for the second.

First: Cc1cc(Cl)ccc1OCC(=O)NCCOc1nc(N(C)C)nc(N2CCCCC2)n1
Second: CCCNC(=O)C1CCCN(c2nn3cc(-c4ccc(F)cc4)nc3s2)C1 (stereo not shown)
The “% Inhibition @ 10 uM” value of the first is lower: 0.401% for the first, 3.95% for the second.

Compared with `Cc1ccc(C2SCC(=O)Nc3c2c(C)nn3C2CCOC(C)(C)C2)cc1` (stereo not shown), `CCC1CCCCN1C(=O)c1cc(-c2ccc(C)cc2)on1` (stereo not shown) is higher in “% Inhibition @ 10 uM” value: -7.86% for the first, -5.2% for the second.

Compared with `CC(Nc1c([N+](=O)[O-])cc([N+](=O)[O-])c2ccccc12)c1ccccc1` (stereo not shown), `O=c1c(Oc2ccccc2Cl)c(C(F)(F)F)oc2cc(O)ccc12` is higher in “% Inhibition @ 10 uM” value: -6.22% for the first, -0.0735% for the second.

Going from `O=C(NC1CCCCCCC1)c1cnc2ccc(S(=O)(=O)N3CCOCC3)cc2c1O` to `Cc1nn(C(=O)CCCC(=O)NCCCN2CCOCC2)c2ccccc12`, the “% Inhibition @ 10 uM” value rises from -2.26% to -1.11%.

Compared with `COc1[nH]c2ccccc2c1C=C(C#N)C#N`, `COC(=O)NC(=O)/C=C/c1ccccc1` is lower in “% Inhibition @ 10 uM” value: 0.27% for the first, -0.636% for the second.

Going from `COc1cc(/C=C2/C(=O)/C(=C/c3cc(OC)c(OC)c(OC)c3)C3CCC2N3C)cc(OC)c1OC` to `COCCOC(=O)C1=C(C)N=C2SCCC(=O)N2C1/C=C/c1ccccc1OC` (stereo not shown), the “% Inhibition @ 10 uM” value falls from -2.12% to -6.78%.

Compared with `Cc1nc(N2C(=O)c3oc4ccccc4c(=O)c3C2c2ccc(C(C)(C)C)cc2)sc1C` (stereo not shown), `CN(C)c1ccc(/C=C/CN2CCN(C/C=C/c3ccccc3)CC2)cc1` is lower in “% Inhibition @ 10 uM” value: 2.16% for the first, -0.292% for the second.

Compared with `Nc1nonc1C(=O)NCCNC(=O)c1cccc(Br)c1`, `CCCN(Cc1cccs1)C(=O)Nc1sc2c(c1C(=O)OCC)CCCC2` is lower in “% Inhibition @ 10 uM” value: 1.25% for the first, 0.623% for the second.

Compared with `C=CCNC(=O)c1cc2c(=O)n3cccc(C)c3nc2n(CCOCCO)c1=N`, `C=CCN(c1nccs1)S(=O)(=O)c1ccc(C)cc1` is lower in “% Inhibition @ 10 uM” value: 1.97% for the first, 0.558% for the second.

In the case of `CCCN(Cc1ccncc1)CC1CC1`, the “% Inhibition @ 10 uM” value is reported as -2.95%.
